Test results from the supplement of paper PMC4604168 (melanoma cell lines).
The other results are listed elsewhere or left out. Many values rest on one well or one pass, so single values are uncertain.

These compounds were tested on IPC-298 (assay: cell count relative to DMSO control; melanoma cells; higher = more viable cells). Conditions: library dose: low library concentration; 72 h.
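Further: cell number obtained by counting DAPI-stained nuclei in high-throughput microscope images with image analysis software, screen run in 1,536-well plates.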

Row | Compound | cell count [%]
1 | C[C@]12O[C@H](C[C@]1(O)CO)n1c3ccccc3c3c4c(c5c6ccccc6n2c5c31)CNC4=O [Lestaurtinib] + CCN(CC)CCNC(=O)c1c(C)[nH]c(/C=C2\C(=O)Nc3ccc(F)cc32)c1C [sunitinib] (first compound 0.004 µM, partner dose 0.4 µM) | 88.8
2 | C[C@]12O[C@H](C[C@]1(O)CO)n1c3ccccc3c3c4c(c5c6ccccc6n2c5c31)CNC4=O [Lestaurtinib] + CS(=O)(=O)c1ccc(C(=O)Nc2ccc(Cl)c(-c3ccccn3)c2)c(Cl)c1 [vismodegib] (first compound 0.004 µM, partner dose 1 µM) | 93.1
3 | C[As](C)SC[C@H](NC(=O)CC[C@H](N)C(=O)O)C(=O)NCC(=O)O [Darinaparsin] + Cn1cc(/C=C2\C(=O)Nc3cccnc32)c2ccccc21 [GW441756] (first compound 0.4 µM, partner dose 0.4 µM) | 98.5
4 | C[C@]12O[C@H](C[C@]1(O)CO)n1c3ccccc3c3c4c(c5c6ccccc6n2c5c31)CNC4=O [Lestaurtinib] + CC(=O)c1c(C)c2cnc(Nc3ccc(N4CCNCC4)cn3)nc2n(C2CCCC2)c1=O [palbociclib] (first compound 0.004 µM, partner dose 0.04 µM) | 86.5
5 | C[C@]12O[C@H](C[C@]1(O)CO)n1c3ccccc3c3c4c(c5c6ccccc6n2c5c31)CNC4=O [Lestaurtinib] + Nc1nc(F)nc2c1ncn2[C@@H]1O[C@H](CO)[C@@H](O)[C@@H]1O [fludarabine] (first compound 0.004 µM, partner dose 0.2 µM) | 93.7
